# In PubChem BioAssay AID445 (National Center for Advancing Translational Sciences (NCATS), 2006):
# Screen size: about 110,000 compounds; about 40 (0.04%) were called active. This list was built around the results that the source calls inconclusive (neither active nor inactive); the mix of calls is not that of the screen. The call rests on the fitted dose curve; in most records, active means well fitted curve in the direction sought with a large enough effect in the signal ratio (not every such curve was filed as active); inconclusive means small, poorly fitted or top-dose-only effect, or a change in a side signal; inactive means flat fitted curve, though single readings scatter; the % refers to the signal ratio. A potency beside an inconclusive call is a rough fit, not a confirmed value.
# Assay: IkB Signaling;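 on IkBa stabilization activation: 0% = basal untreated cells and 100% = reference inhibitor full response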
# Details: ABC-DLBCL IkBa-CBG/CBR dual luciferase ratio (green luciferase fused to IkBa over red control in OCI-Ly3 lymphoma cells), 4 h; IkBa stabilization activation: at 57.1 µM (top of the series), scaled: untreated 0%, proteasome inhibitor 100% unless noted
# Outline: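 Luminescence ratio of IκBα-fused green versus native red beetle luciferase in OCI-Ly3 cells, 4 h post-doxycycline with compound; red signal alone, scaled from basal (0%) to zero light (-100%), flagged nonspecific or cytotoxic effects.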
# Potency means the concentration at half of the fitted maximal effect.
Compound,IkBa stabilization activation,Potency
Cc1ccc2nc(CSc3nnc(-c4ccco4)o3)cc(=O)n2c1,inactive,
Cc1ccc(C)c(OCCCn2c(-c3ccc(Cl)cc3)nc3ccccc3c2=O)c1,inconclusive: 3.81% [signal inhibitor],
C=CCn1cc(C(=O)NCc2ccco2)c(=O)c2cc(S(=O)(=O)N3CCCCCC3)ccc21,inconclusive: 2.77% [signal inhibitor],
Cc1ccc(Cl)cc1N1CCN(C(=O)c2cn(C)c3ccc(S(=O)(=O)N4CCC(C)CC4)cc3c2=O)CC1,inconclusive: -0.836% [signal inhibitor],
COc1ccc(NCc2nc3ccccc3n2CCOc2ccc(C)cc2)cc1,,"inconclusive: 3.98 µM [signal inhibitor, partial curve]"
O=C(NCC(c1ccc(Cl)cc1)N1CCCCC1)c1ccccc1 (stereo not given),inconclusive: 1.35% [signal inhibitor],
Cc1ccc(NCc2nc3ccccc3n2CCOc2ccccc2C)cc1,inconclusive: 7.95% [signal inhibitor],
Nc1c(C(=O)Nc2ccccc2Cl)nnn1Cc1cccc(Cl)c1,inconclusive: -1.66% [signal inhibitor],
CCNc1nc2c(c(=O)n(C)c(=O)n2C)n1CC(O)COc1ccccc1 (stereo not given),,inconclusive: 31.6 µM [signal inhibitor]
Cc1cc2c(cc1S(=O)(=O)CCC(=O)Nc1ccc(OC(F)(F)F)cc1)OCC(=O)N2,inactive,
CCOC(=O)C1=C(O)CCn2c1nc1ccccc12,inconclusive: 10.2% [signal inhibitor],
O=C(NCc1cccc(Br)c1)c1ccc(-n2cnc3cccnc32)cc1,inconclusive: 2.26% [signal inhibitor],
Cc1ccc(-n2ncc3c(N4CCC(C)CC4)ncnc32)cc1C,inconclusive: 6.97% [signal inhibitor],
Cc1cccc(-c2noc(CNC(=O)c3ccc(C)cc3C)n2)c1,inconclusive: -2.61% [signal inhibitor],
CCCCC(=O)Nc1cccc(NC(=O)c2ccc(Br)o2)c1,inconclusive: 8.16% [signal inhibitor],
CCC1CCCCN1C(=O)CSc1nc(N)c(NC(=O)c2ccco2)c(=O)[nH]1 (stereo not given),,"inconclusive: 12.6 µM [signal inhibitor, partial curve]"
C[n+]1cc2c3c(ccc2c2ccc4cc5c(cc4c21)OCO5)OCO3,"inconclusive: -1.93% [signal inhibitor] [at 25.6 µM, scaled: untreated 0%, proteasome inhibitor 100%]","inconclusive: 3.16 µM [signal inhibitor, partial curve]"
CC(C)(C)c1ccc(OCC(=O)NCC2(N3CCOCC3)CCCCC2)cc1,inconclusive: -1.18% [signal inhibitor],
COc1ccccc1-c1cc2nc(C)c(CCC(=O)NCCc3cccc(C)c3)c(C)n2n1,inconclusive: 17.1% [signal inhibitor],
COc1ccc(C(=O)CSc2nc3nc(C)cc(C)c3c(=O)[nH]2)cc1OC,inactive,
CCc1cccc(-n2c(=O)c3cccnc3n2CC(=O)NCc2ccc(C)cc2)c1,inactive,
O=C(CCCCCn1c(=O)c2sccc2n(CC(=O)Nc2cc(C(F)(F)F)ccc2Cl)c1=O)NCc1ccccc1Cl,inconclusive: 1.66% [signal inhibitor],
Cc1ccc(NC(=O)c2cc3ccccn3n2)cc1F,inactive,

Compound,IkBa stabilization activation,Potency
Cc1ccc(NC(=O)Cn2cnc3onc(-c4ccc(F)cc4)c3c2=O)c(Cl)c1,inconclusive: 1.98% [signal inhibitor],
CCN1CCN(Cc2nc3c(c(=O)n(C)c(=O)n3C)n2Cc2ccc(Cl)cc2Cl)CC1,,"inconclusive: 12.6 µM [rising, single point]"
CC(C)C(=O)Nc1cccc(NC(=O)c2cc3ccccc3o2)c1,,"inconclusive: 7.94 µM [signal inhibitor, partial curve]"
CN(C)c1ccc(-c2cc(Nc3ccc(F)cc3)ncn2)cc1,"inactive: 1.62% [at 11.4 µM, scaled: untreated 0%, proteasome inhibitor 100%]",
COc1ccc(C2(NC(C)=O)CCN(C(=O)CCC(=O)O)CC2)cc1,inconclusive: 5.84% [signal activator],
CCOc1ccccc1CNC(=O)c1oc2c(c1C)-c1[nH]ncc1CC2,inactive,
O=C(COC(=O)c1cnccn1)c1ccc(Br)cc1,inactive,
Cc1ccc(C)n1-c1nnc(N2CCCC(C(=O)Nc3ccccc3Br)C2)s1 (stereo not given),inconclusive: 1.81% [signal inhibitor],
CC1CCN(S(=O)(=O)c2ccc3c(c2)N(CC(=O)NCCCN2CCCCC2)C(=O)CS3)CC1,inconclusive: 0.656% [signal inhibitor],
CCOC(=O)CSc1nnc(CNC(=O)Cc2ccccc2)n1-c1ccccc1OC,inconclusive: 16.8% [signal inhibitor],
Cc1ccc(CNC(=O)c2cc(-c3ccc(C)cc3)nc3n[nH]c(-c4cccc([N+](=O)[O-])c4)c23)cc1,inactive,
Nc1ccc(-c2n[nH]c(=O)c3ccccc23)cc1N,inconclusive: 3.4% [signal inhibitor],
CCOc1ccc(S(=O)(=O)NCCc2c(C)[nH]c3c(Cl)cccc23)cc1C,inconclusive: 2.61% [signal inhibitor],
Cc1c(C(=O)Nc2ccc(F)c(C(F)(F)F)c2)sc2nc(-c3ccccc3)cn12,inactive,
Cc1ccc(Cl)cc1N1CCN(C(=O)CSc2cc(=O)n(C)c3ccccc23)CC1,inconclusive: 3.37% [signal inhibitor],
CC(C)c1ccc(OCc2ccc(C(=O)N3CCN(c4ccccn4)CC3)cc2)cc1,inconclusive: -2.54% [signal inhibitor],
CCC(C)NC(=O)c1cn(C)c(=O)c2cc(OC)c(OC)cc12 (stereo not given),inactive,
CC1=C(C(=O)Nc2cc(Cl)ccc2C)C(c2sccc2C)n2ncnc2N1 (stereo not given),inconclusive: 1.35% [signal inhibitor],
O=C(Nc1nc2ccc(F)cc2s1)c1nc(S(=O)(=O)Cc2ccccc2F)ncc1Cl,inactive,
COc1ccc(C(=O)Nc2ccc3nc(SCC(=O)N(C)c4ccccc4)sc3c2)cc1,inconclusive: 3.89% [signal inhibitor],
CC(C)(C)c1ccc2c(c1)N(CC(=O)NCCCN1CCN(c3ccccc3F)CC1)C(=O)CO2,inconclusive: 0.714% [signal inhibitor],
CC1CCc2c(sc3ncn4c(SCC(=O)NCc5ccco5)nnc4c23)C1 (stereo not given),inactive,
O=C1c2ccccc2C(Nc2ccc(F)c(Cl)c2)N1Cc1ccco1 (stereo not given),,"inconclusive: 12.6 µM [signal inhibitor, partial curve]"

Compound,IkBa stabilization activation,Potency
CCOc1ccc(NC(=O)CSc2nnc(CNC(=O)C34CC5CC(CC(C5)C3)C4)n2CC)cc1,inconclusive: -0.568% [signal inhibitor],
CCOc1ccc2[nH]c(=O)c(CN(Cc3ccco3)Cc3nnnn3Cc3ccccc3)cc2c1,inconclusive: 4.92% [signal inhibitor],
N#Cc1c(N)nc(SCC(=O)OCc2ccccc2)c(C#N)c1-c1ccco1,inconclusive: 5.15% [signal inhibitor],
CCN(CC)c1nc(C#N)cc(-c2ccc(OC)cc2)n1,inactive,
O=C(Nc1nc2ccccc2[nH]1)C1CCCO1 (stereo not given),inactive,
Cc1cccc2cc(CN(CC3CCCO3)C(c3nnnn3Cc3ccco3)C(C)C)c(=O)[nH]c12 (stereo not given),,"inconclusive: 31.6 µM [rising, single point]"
CC(Oc1ccccc1)C(=O)Nc1ccccc1C(=O)OCc1cc(=O)n2nc(C(C)C)sc2n1 (stereo not given),inconclusive: 9.22% [signal inhibitor],
CCCC12CN3CC(CCC)(CN(C1)C3c1ccc(OC(C)C)cc1)C2=O (stereo not given),inconclusive: 10.8% [signal inhibitor],
COc1ccc(Nc2nc(N3CCCCC3)nc(N3CCCCC3)n2)c(OC)c1,inactive,
COc1cc(-c2nnc3sc(-c4cccnc4)nn23)cc(OC)c1OC,inactive,
Cc1ccc(S(=O)(=O)NC(CC(=O)O)c2ccccc2)cc1 (stereo not given),inactive,
CSc1nc2c(sc3ccccc32)c(=O)n1Cc1ccc(C)cc1,inconclusive: 3.5% [signal inhibitor],
CCn1c(=O)c(=O)n(CC)c2cc(N3CCCCC3)c(NC(=O)c3ccccc3OC)cc21,inconclusive: 0.444% [signal inhibitor],
CCOc1ccc(-c2nc(CSCC(=O)NCCc3ccc(OCC)c(OCC)c3)c(C)o2)cc1,inconclusive: 1.63% [signal inhibitor],
COc1ccccc1-c1c(C)nn2c(N3CCN(c4ccccc4)CC3)cc(C)nc12,inconclusive: 2.42% [signal inhibitor],
COc1ccc(OC)c(CNC(=O)CN2N=C(c3ccc(Cl)cc3)CCC2=O)c1,inactive,
O=C(NCCc1ccc(Cl)cc1)C(=O)NCC(c1cccs1)S(=O)(=O)c1cccs1 (stereo not given),inconclusive: 16.3% [signal inhibitor],
Cc1ccc(NC(=O)c2noc3c2CCCCC3)cc1,inconclusive: 18.6% [signal inhibitor],
O=C(Nc1ccc2nc(SCC(=O)N3CCOCC3)sc2c1)c1ccc(Br)cc1,inconclusive: 0.962% [signal inhibitor],
CCC(C)NC(=O)CSc1c2c(nc3cc(Cl)ccc13)CCCC2 (stereo not given),inactive,
C=Cc1ccc(Cn2c(C(=O)O)c(CNC3CCCCC3)c3ccc(OC)cc32)cc1,inactive,
COC(=O)c1ccc(NC(=O)CCc2c(C)nc3c(c(C)nn3C(C)(C)C)c2C)cc1,inconclusive: 1.07% [signal inhibitor],
CCN(C(=O)CSc1nc(-c2ccccc2)no1)c1ccccc1,,"inconclusive: 31.6 µM [signal inhibitor, single point]"
